Data reported in paper PMC12040169 (PLOS Biology, 2025).
The list shows a part of the results.

Tested on: T1, C. trachomatis L2/434/Bu expressing GFP (CTL2-GFP)
T1 construct: L2/434/Bu GFP intracellular growth in HeLa cells
Parameters: species or system HeLa; C. trachomatis total inclusion area by high-content imaging, normalised to DMSO
Settings: total inclusion area; 28.5 h, 10 µM; inhibitor
Procedure, shortened: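 Post-fluorescence-read fixation, DNA staining with Hoechst and high-content imaging; GFP inclusion area and number per well, and nuclei counts, used as proxies for bacterial growth and host viability.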

SMILES | % of control remaining
CC(=O)c1cc(CN2CCCOC(Cn3cccn3)C2)cs1 (centres unmarked) [CBK307365] | 51.061
O=C(Nc1ccc(N2CCN(Cc3ccccc3)CC2)cc1)c1cncc(Br)c1 [CBK267093] | 112.13
CC(C)c1ccc(S(=O)(=O)N(c2ccccc2)C2CCNCC2)cc1 [CBK165088T] | 69.558
O=C(CSCc1cccc(Cl)c1)Nc1cccnc1 [CBK264114] | 82.8775
CN1CCN(C(=O)CNS(=O)(=O)c2ccc3ccccc3c2)CC1 [CBK042205] | 84.9648
CCC1CCCCN1C(=O)c1cncc(Br)c1 (centres unmarked) [CBK076699] | 86.2943
CC(=O)Oc1ccc(N2C(=O)CCSC2=S)cc1 [CBK005283] | 65.4183
O=[N+]([O-])c1ccc(Cl)c(C2N(Cc3ccccc3)CCN2Cc2ccccc2)c1 [CBK261601] | 97.3518
O=C(O)[C@H](Cc1ccccc1)Nc1ncnc2[nH]cnc12 [CBK287090] | 96.8856
CCNS(=O)(=O)c1ccc(NC(=O)c2cc(-c3ccccn3)nc3c(C)c(C)ccc23)cc1 [CBK267733] | 78.0978
FC(F)(F)c1cccc(OCCCc2ccncc2)n1 [CBK115795] | 116.545
O=S(=O)(NCC(Sc1ccc(F)cc1)c1ccccc1)c1ccc(Cl)cc1 (centres unmarked) [CBK266306] | 127.779
O=C(CCn1c(-c2cccnc2)cc2cccnc21)NC1CC1 [CBK282622] | 119.941
C=CCN1CCCC[C@H]2CN(S(=O)(=O)c3cccc(F)c3)C[C@H]21 [CBK285500] | 78.7762
O=S(=O)(c1c(Cl)cccc1Cl)n1ccc2c(N3CCNCC3)nccc21 [CBK059060C] | 90.8384
CC1(CC(=O)N2CCCCCC2)SC(NC2CCCCCC2)=NC1=O (centres unmarked) [CBK074269] | 89.0444
FC(F)(F)c1ccc(CN2CCCN(c3cc(OC4CCCCC4)ncn3)CC2)cc1 [CBK083277T] | 53.5808
O=c1[nH]nc2cc(NCc3ccc(Cl)cc3)ncn12 [CBK288479] | 90.565
CN(C)CCN(C)c1nc(-c2ccc3[nH]ccc3c2)cn2ccnc12 [CBK066276] | 96.6352
COc1ccc(-c2cc(C(F)(F)F)nc(SCC(=O)N(C)c3ccccc3)n2)cc1OC [CBK267628] | 88.4805
O=S(=O)(Cc1ccc(Br)cc1F)c1ccccn1 [CBK019368] | 87.9217
O=C(c1cc2ccccc2[nH]1)N1CCN(Cc2ccccc2)CC1 [CBK200172] | 92.839
COc1ccc2nc(C)c(CCC(=O)O)c(O)c2c1 [CBK286955] | 111.588
